These results are taken from the supplement of paper PMC5919970.

Structures are written as SMILES. Structures can show the parent of a compound that is named as a salt. Over roughly 2,000 compounds, “fractional viability relative to vehicle” has its median near 0.92; the lowest 2% begin near 0.11. This is one part of the list.

In this assay the test system is TYKNU. Kind of assay: fractional viability relative to vehicle; TYKNU is a high-grade serous ovarian cancer line; higher = less growth inhibition. The settings on record: 72 h, genotype: OPA1 knockout (sgOPA1 #2). The method in brief: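 Drug treatment lasted 72 h, with cells grown at 37 °C in 5% CO2 in RPMI 1640 supplemented with 10% FBS. Beforehand, TYKNU control cells or their lentiCRISPRv2 knockout derivatives had been seeded at 500 cells per well into drug-stamped 384-well plates carrying a ~2100-compound library at 2 or 10 μM, in duplicate. Viability came from Cell Titer Glo luminescence, with averaged duplicate treatment wells normalised to duplicate control wells in the same plate position.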

Consider `Cc1cn([C@@H]2C[C@@H](O)[C@H](CO)O2)c(=O)[nH]c1=O` [Telbivudine], for which the fractional viability was 1.07 (2uM) and 0.976 (10uM).

For the compound `FC(F)(F)c1ccc(/C=C/c2nc(COc3ccc(CCCCn4ccnn4)cc3)co2)cc1` [Mubritinib (TAK 165)], the fractional viability (2uM) is 0.728 and the fractional viability (10uM) was determined as 0.742.

On to `O=C1c2c(O)cc(O)cc2OC(c2ccc(O)c(O)c2)C1O` (stereo not drawn) [Taxifolin (Dihydroquercetin)], for which the fractional viability came out at 0.797 (2uM) and 0.944 (10uM).

In the case of `CN(C)CCCOc1nn(Cc2ccccc2)c2ccccc12` [Benzydamine HCl], the fractional viability reads like this: (2uM) 0.962; (10uM) 0.918.

`CC(C)(C)c1cc(C(=O)C(C#N)=NNc2cccc(Cl)c2)no1`: the fractional viability runs as follows: (2uM) 0.706; (10uM) 0.572.

Take `CNS(=O)(=O)Nc1nccc(Cc2c(C)c3ccc(Oc4ncccn4)cc3oc2=O)c1F`: the fractional viability (2uM) stood at 0.508 and the fractional viability (10uM) came out at 0.376.

Take `OC[C@@H](O)[C@@H](O)[C@H](O)[C@@H](O)CO` [Sorbitol]: the fractional viability amounted to 1.03 (2uM) and 0.961 (10uM).

Consider `CC(=O)OCC(=O)[C@@]1(O)CC[C@H]2[C@@H]3CCC4=CC(=O)CC[C@]4(C)[C@H]3C(=O)C[C@@]21C` [Cortisone acetate], for which the fractional viability stood at 0.944 (2uM) and 0.931 (10uM).

`COc1cc2nc(N3CCN(C(=O)C4CCCO4)CC3)nc(N)c2cc1OC` (stereo not drawn) [Terazosin HCl]: the fractional viability (2uM) came out at 1.14 and the fractional viability (10uM) is 1.15.

`CN1CCN(c2cccc(Nc3nc4c(-c5ccc(S(C)(=O)=O)cc5)cccn4n3)c2)CC1`: the fractional viability reads like this: (2uM) 0.974; (10uM) 0.73.

Regarding `CN[C@@H](C)C(=O)N[C@H](C(=O)N1CCC[C@H]1C(=O)Nc1snnc1-c1ccccc1)C1CCCCC1`, the fractional viability is 0.918 (2uM) and 0.747 (10uM).

On to `CNC(=O)c1nn(C)c2c1C(C)(C)Cc1cnc(Nc3ccc(N4CCN(C)CC4)cc3)nc1-2`, for which the fractional viability is, setting by setting: (2uM) 0.882; (10uM) 0.568.

As to `CC(C)(O)CC[C@@H](O)[C@](C)(O)[C@H]1CC[C@@]2(O)C3=CC(=O)[C@@H]4C[C@@H](O)[C@@H](O)C[C@]4(C)[C@H]3CC[C@]12C` [20-Hydroxyecdysone], the fractional viability is, setting by setting: (2uM) 0.814; (10uM) 0.956.

Consider `COc1cc(C)c(/C=C/C(C)=C/C=C/C(C)=C/C(=O)O)c(C)c1C` [Acitretin], for which the fractional viability is, setting by setting: (2uM) 1.02; (10uM) 0.73.

For `C[C@@H]1COCCN1c1cc(C2([S@](C)(=N)=O)CC2)nc(-c2cc[nH]c3nccc2-3)n1`, the fractional viability reads like this: (2uM) 0.396; (10uM) 0.516.

As for `CC(C)(F)C[C@H](N[C@@H](c1ccc(-c2ccc(S(C)(=O)=O)cc2)cc1)C(F)(F)F)C(=O)NC1(C#N)CC1` [Odanacatib (MK-0822)], the fractional viability stood at 1.09 (2uM) and 1.01 (10uM).

With `COc1cc(/C=C/C(=O)O)ccc1O` [Ferulic Acid], the fractional viability was 1.05 (2uM) and 0.837 (10uM).

Take `C[N+]1(C)CCC(=C(c2ccccc2)c2ccccc2)CC1` [Diphemanil Methylsulfate]: the fractional viability is, setting by setting: (2uM) 0.901; (10uM) 0.95.

Consider `NS(=O)(=O)c1cc2c(cc1Cl)NCNS2(=O)=O` [Hydrochlorothiazide], for which the fractional viability reads like this: (2uM) 1.19; (10uM) 1.12.
